Experimental data as given in the supplement of paper PMC6135742.
Counter-ions that a name gives are not always drawn. ± gives the standard deviation of the averaged measurements. The full ranking holds about 2,600 compounds; the median of “MBP+ mature oligodendrocyte number relative to DMSO vehicle control” is about -0.34, and the highest 2% start at about 13. Some of the results follow.

test system: jimpy (Plp1 jimpy) mouse iPSC-derived oligodendrocyte progenitor cells; test: MBP+ mature oligodendrocyte number relative to DMSO vehicle control (SDs above negative control mean); higher = more surviving jimpy oligodendrocytes (rescue); settings: 10 µM; 3 days
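Also: 10 µM single dose with 3-day oligodendrocyte differentiation.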

Row | SMILES | MBP+ mature oligodendrocyte number
1 | Cc1cc(C#N)cc(C)c1Oc1nc(Nc2ccc(C#N)cc2)nc(N)c1Br [Etravirine (TMC125)] | 4.23
2 | Nc1nc2c(ncn2[C@@H]2O[C@H](CO)[C@@H](O)[C@@H]2O)c(=O)[nH]1 [Ara-G hydrate] | -0.925
3 | O=c1[nH]c(=O)n([C@H]2C[C@H](O)[C@@H](CO)O2)cc1C(F)(F)F [Trifluridine] | < -5.15
4 | S=c1[nH]cnc2nc[nH]c12 [Mercaptopurine (6-MP)] | -2.86
5 | NS(=O)(=O)c1ccc(NC(=O)Nc2ccc(F)cc2)cc1 | 1.29
6 | Cc1ccccc1C(=O)Nc1ccc(C(=O)N2CCCC(N(C)C)c3ccccc32)cc1 (stereo not given) [Mozavaptan] | 3.04
7 | Cc1cccc(-c2[nH]ncc2-c2ccc3ncccc3n2)n1 | -1.19 ± 2.3
8 | NCCCCN [Putrescine dihydrochloride] | -0.604
9 | CN(Cc1ccc(C(C)(C)C)cc1)Cc1cccc2ccccc12 [Butenafine HCl] | 21.1
10 | O=C(NCCCNc1nc(Nc2cccc(NC(=O)N3CCCC3)c2)ncc1I)c1cccs1 | -6.61
11 | CCOC(=O)[C@@H](N)Cc1ccc(O)c(O)c1 [L-Dopa ethyl ester] | 0.136
12 | O=C1Nc2ccc(I)cc2/C1=C/c1cc(Br)c(O)c(Br)c1 | 0.845 ± 0.41
13 | O=C1N=C(O)NC1(c1ccccc1)c1ccccc1 [Phenytoin sodium] | 1.08 ± 1.6
14 | COc1cc(NS(=O)(=O)c2ccc(N)cc2)nc(OC)n1 [Sulphadimethoxine] | 4.57
15 | CC1(C)O[C@@H]2[C@@H](CO[C@@]3(COS(N)(=O)=O)OC(C)(C)O[C@@H]23)O1 [Topiramate] | -0.938
16 | CN(C)c1cc(NC(=O)CNC(C)(C)C)c(O)c2c1C[C@H]1C[C@H]3[C@H](N(C)C)C(O)=C(C(N)=O)C(=O)[C@@]3(O)C(O)=C1C2=O [Tigecycline] | -0.415
17 | COc1cc2c(cc1OC)-c1c/c(=N\c3c(C)cc(C)cc3C)n(C)c(=O)n1CC2 [Trequinsin hydrochloride] | 0.789
18 | Cc1cccc(Nc2ccncc2S(=O)(=O)NC(=O)NC(C)C)c1 [Torsemide] | 2.14
19 | CSc1c(C)c(SC)n2ccncc12 [Oltipraz metabolite M2] | -2.35
20 | O=C(c1ccc(F)cc1)N1CCC[C@H](c2nc(-c3ccc(F)cc3)no2)C1 | 2.72

Row | SMILES | MBP+ mature oligodendrocyte number
21 | Cc1ccc(Cl)cc1N(CC(=O)Nc1c(F)cccc1F)S(C)(=O)=O | 0.933
22 | NC(=O)N1c2ccccc2CC(=O)c2ccccc21 [Oxcarbazepine] | 1.59
23 | NC1=NCC2c3ccccc3Cc3ccccc3N12 (stereo not given) [Epinastine HCl] | 5.9
24 | NC1=NCC2c3ccccc3Cc3ccccc3N12 (stereo not given) [Epinastine hydrochloride] | -1.17
25 | Oc1nc(-c2ccc(C(F)(F)F)cc2)nc2c1CSCC2 | -3.38
26 | CC(C)Cn1cnc2c(N)nc3ccccc3c21 [Imiquimod] | -0.0654
27 | CN(C)c1ccc(-c2nc3ncc(Cl)c(N4CCN(CC(=O)Nc5nccs5)CC4)c3[nH]2)cc1 | -2.99
28 | C[C@H](CCC(=O)NCCS(=O)(=O)O)[C@H]1CC[C@H]2[C@@H]3[C@H](O)C[C@@H]4C[C@H](O)CC[C@]4(C)[C@H]3C[C@H](O)[C@]12C [Sodium Taurocholate hydrate] | -0.433
29 | Nc1ccccc1NC(=O)c1ccc(CNc2nccc(-c3cccnc3)n2)cc1 [Mocetinostat (MGCD0103)] | < -6.7
30 | CN1CC(=O)N=C1NC(=O)Nc1cccc(Cl)c1 [Fenobam] | -0.794
31 | CC[C@H](C)C(=O)O[C@H]1C[C@H](O)C=C2C=C[C@H](C)[C@H](CC[C@@H](O)C[C@@H](O)CC(=O)O)[C@H]21 [Pravastatin sodium] | -2.83
32 | CCCc1c(OCCCOc2ccc(OCC(=O)O)cc2)ccc(C(C)=O)c1O | -0.439
33 | CC1=C(C(=O)O)N2C(=O)[C@@H](NC(=O)[C@H](N)c3ccccc3)[C@H]2SC1 [Cephalexin hydrate] | 0.549
34 | CC1=C(C(=O)O)N2C(=O)[C@@H](NC(=O)[C@H](N)c3ccccc3)[C@H]2SC1 [Cephalexin] | -1.55
35 | Cc1nccn1CC1CCc2c(c3ccccc3n2C)C1=O (stereo not given) [Ondansetron HCl] | 12.8
36 | CC(=O)NC[C@H]1CN(c2ccc(N3CCOCC3)c(F)c2)C(=O)O1 [Linezolid] | 1.72 ± 2.5
37 | O=c1c2ccccc2[nH]c(=S)n1CCN1CCC(=C(c2ccc(F)cc2)c2ccc(F)cc2)CC1 [Diacylglycerol Kinase Inhibitor II] | 2.18
38 | COc1ccc2c(c1)c(CC(=O)OCC(=O)O)c(C)n2C(=O)c1ccc(Cl)cc1 [Acemetacin] | -3.19
39 | COc1cc2c(cc1Cc1cccc(Cl)c1F)c(=O)c(C(=O)O)cn2[C@H](CO)C(C)C [Elvitegravir (GS-9137, JTK-303)] | -2.9
40 | COc1ccc2cc3[n+](cc2c1OC)CCc1cc2c(cc1-3)OCO2 [Berberine HCl] | < -4.81
